From US9138437B2, “Pyrimidine substituted purine compounds as kinase (S) inhibitors” (VERASTEM, INC., priority 2009, dated 2015)
Read-outs that look alike come from different tables or passages of the source.

Columns and labels:
[1] = biological target: Recombinant PI3K p110α/p85 (Homo sapiens, UniProt P42336); details: read-out: PI3K
Procedure: Recombinant PI3K p110α/p85 was prepared in-house. Phosphatidylinositol (PtdIns), phosphotidylserine (PtdSer) and all other unspecified chemicals were purchased from Sigma-Aldrich. [γ^33P]ATP and Optiphase scintillant were obtained from Perkin Elmer.
Assays were performed in a final assay volume of 25 μL in 384-well Maxisorp plates (Nunc). […] Maxisorp plates were coated with 20 μL/well of a 1:1 mixture of PtdIns and PtdSer [0.1 mg/mL each dissolved in chloroform:ethanol (3:7)] and left overnight in a fume hood at room temperature (RT) to dry.
The reaction was incubated for 1 hour at RT and terminated with 30 μL/well of 50 mM EDTA solution. The plate was then washed twice with TBS, dried, and added with 30 μL/well of scintillant before it was counted in a MicroBeta Trilux.

[2] = biological target: Truncated mTOR kinase (Homo sapiens, UniProt P42345); assay: biochemical
Procedure: Truncated mTOR kinase and His-tagged 4eBP1 were produced in-house. [γ^33P]-ATP was purchased from Amersham (GE Healthcare). All chemicals, unless otherwise stated, were from Sigma-Aldrich.
Phosphorylation assays were initially performed in a final volume of 20 μL in 384-well polypropylene plate (Greiner). […] After 1 hour incubation at room temperature, the reaction was terminated with 40 μL/well of 20 mM EDTA/1 mM ATP solution.
The plate was washed 4 times with 120 μL/well of 0.5% phosphoric acid via vacuum filtration. Finally, 10 μL/well of Optiphase™ SuperMix liquid scintillation cocktail (Perkin Elmer) was added. After minimum 1 hour of incubation, counting was performed in a Wallac MicroBeta TriLux scintillation counter using coincidence counting mode with crosstalk correction.

| Compound | IC50 [1] [nM] | IC50 [2] [nM] | stability in human liver microsome studies, assessment in words (human, microsomes) | activity against mTOR, assessment in words ([2]; compared with the other compounds tested) | stability in human liver microsome studies, assessment in words (in vitro metabolic stability) |
| --- | --- | --- | --- | --- | --- |
| CCC(C)n1c(Br)nc2c(-c3cnc(N)nc3)nc(N3CCOCC3)nc21 (centres unmarked) [Cmpd A] | 43 | 21 | acceptable stability | – | – |
| CCC(C)n1c(C)nc2c(-c3cnc(N)nc3)nc(N3CCOCC3)nc21 (centres unmarked) [Cmpd D] | 15 | 40 | – | – | – |
| CCC(C)n1cnc2c(-c3cnc(N)nc3)nc(N3CCOCC3)nc21 (centres unmarked) [Cmpd E] | 18 | 122 | acceptable stability | significantly lower activity | – |
| CCc1nc2c(-c3cnc(N)nc3)nc(N3CCOCC3)nc2n1C(C)C [Cmpd C] | 16 | 27 | – | – | – |
| CC(C)n1c(Br)nc2c(-c3cnc(N)nc3)nc(N3CCOCC3)nc21 [Cmpd B] | 17 | 16 | – | – | acceptable stability |
